The campaign covered roughly 5,400 compounds. About 190 (3.5%) showed an effect of 50% or more. Some of the results follow. Residues, ends and D or L forms follow the SMILES beside them. *: point of attachment. Cbz = O=C(OCc1ccccc1)*

Results on 54 molecules are retold here after publication PMC13083723 (Patterns, 2026).

In this assay the test system is Vero-E6. Briefly: primary screen, phospholipidosis by LipidTOX staining; higher = more effect of the substance. As to conditions: 10 µM. Here is the method:
To measure drug-induced PLD in Vero-E6 cells, we used the HCS LipidTOX Red Phospholipidosis Detection Reagent (Invitrogen, #H34351), which is non-toxic to cell growth and remains well retained after aldehyde fixation. In this setup, compounds (at 10 μM concentration) and controls (amiodarone: 10 μM concentration; DMSO: 0.1 v/v %) were added to clear-bottom, 384-well plates (PhenoPlate 384-well, black, optically clear flat bottom, tissue-culture treated, Revvity #6057302) using the Echo Liquid Handler (Labcyte).
Turning to `CC(C)(C#N)c1ccc(N2C(=O)OCc3cnc4ccc(-c5cnc6ccccc6c5)cc4c32)cc1`, the result_ITMP was -10.5%.

On to `C[C@]12CCC(=O)C(O)=C1CCC1C2CC[C@]2(C)C(=O)CCC12` (stereo partly drawn), for which the result_ITMP was -1.78%.

As to `CCN(CC)Cc1ccc2cc(COC(=O)Nc3ccc(C(=O)NO)cc3)ccc2c1`, the result_ITMP is given as 24.4%.

For the molecule `Cc1ncc(CSSCc2cnc(C)c(O)c2CO)c(CO)c1O`, the result_ITMP is 4.33%.

In the case of `NC1=N[C@H]2[C@H](CCCCC(=O)O)SC[C@H]2N1`, the result_ITMP is -5.63%.

Consider `CN(C)c1ccc(-c2nc3c(N4CCN(CC(=O)Nc5nccs5)CC4)c(Cl)cnc3[nH]2)cc1`, for which the result_ITMP is listed as -3.31%.

Turning to `Fc1ccccc1-c1nc2ccn(Cc3ccc(-c4ccc(C(F)(F)F)cc4C(F)(F)F)nn3)cc-2n1`, the result_ITMP is -1.14%.

Consider `COc1ccc(C[C@@H](C)[C@@H](C)Cc2ccc(OC)c(OC)c2)cc1OC`, for which the result_ITMP is listed as 6.63%.

In the case of `Oc1cccc(Nc2ccc(Nc3cccc(O)c3)nn2)c1`, the result_ITMP was -10.8%.

Regarding `CCOC(=O)[C@H](Cc1ccc([N+](=O)[O-])cc1)NC(=O)c1ccccc1`, the result_ITMP is -1.7%.

As to `CC(C)C[C@@H](C=O)NC(=O)[C@H](CC(C)C)NC(=O)[C@H](CC(C)C)NC(=O)OCc1ccccc1` (Cbz-Leu-Leu-Leu-aldehyde), the result_ITMP is 5.65%.

Regarding `CC(C)n1cnc2c(C(=O)N[C@H]3CN4CCC3CC4)cc(Cl)cc21`, the result_ITMP amounted to 11.8%.

On to `N#CCC1(n2cc(-c3ncnc4[nH]ccc34)cn2)CN(C2CCN(C(=O)c3ccnc(C(F)(F)F)c3F)CC2)C1`, for which the result_ITMP was determined as 0.26%.

As for `OC[C@H]1O[C@@H](Oc2ccc(O)cc2)[C@H](O)[C@@H](O)[C@@H]1O`, the result_ITMP was -7.03%.

Take `O=C(c1ccc(C(=O)N2CCC(N3CCCC3)CC2)c(Nc2ccccc2)c1)N1CCC(N2CCCC2)CC1`: the result_ITMP is listed as 4.66%.

Regarding `O=Nc1ccc(O)c2ncccc12`, the result_ITMP is 6.47%.

`Nc1ccc(S(=O)(=O)c2ccc(N)cc2)cc1`: the result_ITMP was determined as 3.12%.

Turning to `CN1c2c(nc(N)[nH]c2=O)NC[C@@H]1CNc1ccc(C(=O)N[C@@H](CCC(=O)[O-])C(=O)[O-])cc1`, the result_ITMP is listed as -7.73%.

For the molecule `OCCN1CCN(CCCN2c3ccccc3Sc3ccc(Cl)cc32)CC1`, the result_ITMP came to 84.7%.

Take `CC(C)(C)NCc1cc(Nc2ccnc3cc(Cl)ccc23)c2c(c1O)CCCC2`: the result_ITMP is given as 11.2%.

`CN(C)CCc1c[nH]c2ccc(Cn3cncn3)cc12`: the result_ITMP was -5.8%.

With `C=CC1=C(C)c2cc3[nH]c(cc4nc(cc5[nH]c(cc1n2)c(C)c5CCC(=O)O)C(CCC(=O)OC)=C4C)[C@@]1(C)C3=CC=C(C(=O)OC)[C@H]1C(=O)OC`, the result_ITMP is recorded as -1.93%.

`CCC(CC)Nc1cc(C)nc(Oc2c(C)cc(C)cc2C)c1C`: the result_ITMP worked out at 0.31%.

In the case of `Oc1cc(Cl)ccc1Oc1ccc(Cl)cc1Cl`, the result_ITMP is given as -5.79%.

For the molecule `C=C1/C(=C\C=C2/CCC[C@]3(C)[C@@H]([C@H](C)CCCC(C)(C)O)CC[C@@H]23)C[C@@H](O)C[C@@H]1O`, the result_ITMP is on record as -1.95%.

In the case of `Cc1cc(C(=O)Nc2cc(Oc3ccc4nc(NC(=O)C5CC5)cn4n3)ccc2C)n(C)n1`, the result_ITMP was 0.15%.

`C[C@]12CC[C@H](O)CC1=CCC1C2CC[C@]2(C)C(=O)CC[C@@H]12` (stereo partly drawn): the result_ITMP stood at 13.7%.

Consider `CC1(C)OC(=O)NC1=O`, for which the result_ITMP was -2.7%.

As to `On1ncc(C2CCNCC2)c1-c1cccc(-c2ccccc2)c1`, the result_ITMP is -3.65%.

As to `C[C@H](Nc1ncnc2[nH]cnc12)c1nc2ccc(F)cc2c(=O)n1-c1ccccc1`, the result_ITMP was -2.32%.

For the molecule `N[C@@H](C(=O)O)c1ccc(C(=O)O)c(C(=O)O)c1`, the result_ITMP is reported as -2.09%.

For `N#Cc1c(N)nc(SCc2csc(-c3ccc(Cl)cc3)n2)c(C#N)c1-c1ccc(OCCO)cc1`, the result_ITMP is 0.38%.

For the molecule `CCCCNNC(=O)c1ccc(Br)cc1`, the result_ITMP is -9.9%.

Turning to `Fc1ccc(-c2nc3n(c2-c2ccncc2)CCS3)cc1`, the result_ITMP is -4.5%.

Turning to `CCC[C@H](N[C@@H](C)C(=O)N1[C@H](C(=O)O)C[C@@H]2CCCC[C@@H]21)C(=O)OCC`, the result_ITMP is listed as -8.8%.

For the molecule `CCCC(=O)O[C@]1(C(=O)COC(C)=O)CC[C@H]2[C@@H]3C[C@H](F)C4=CC(=O)C=C[C@]4(C)[C@@]3(F)[C@@H](O)C[C@@]21C`, the result_ITMP is -0.93%.

For `Cn1ncc(Cl)c1-c1cc(C(=O)N[C@H](CN)Cc2ccc(F)c(F)c2)oc1Cl`, the result_ITMP worked out at 82.6%.

Consider `COc1ncc2cc(C(=O)Nc3cc(C(=O)NCc4cccc(Cl)c4)ccc3Cl)c(=O)[nH]c2n1`, for which the result_ITMP was -7.54%.

Regarding `Nc1ccc(C(=O)NCC(=O)O)cc1`, the result_ITMP is given as -10.8%.

Regarding `COc1ccc(NS(=O)(=O)c2ccc(N)cc2)nn1`, the result_ITMP was -1.34%.

As for `O=C(O)c1ccc2c(c1)C(=O)N(c1cccc(Oc3ccc([N+](=O)[O-])cc3)c1)C2=O`, the result_ITMP was determined as 0.2%.

Regarding `O=S(=O)([O-])c1cc(I)c(O)c2ncccc12`, the result_ITMP is -9.09%.

For the molecule `CCCCCCCC/C=C/C(=O)O`, the result_ITMP was -3.69%.

In the case of `COc1cc2c(Oc3ccc4[nH]c(C)cc4c3F)ccnc2cc1OCC1(N)CC1`, the result_ITMP came out at 35.5%.

As for `CC[C@H](/C=C/[C@@H](C)[C@H]1CC[C@H]2[C@@H]3CC=C4C[C@@H](O)CC[C@]4(C)[C@H]3CC[C@]12C)C(C)C`, the result_ITMP is -2.7%.

Consider `CC(C)(C)c1[nH]cnc1/C=c1\[nH]c(=O)/c(=C/c2ccccc2)[nH]c1=O`, for which the result_ITMP is -3.64%.

Regarding `CC(C)(C)CC(=O)Nc1c(F)cc(C(=O)/N=c2\sccn2COP(=O)(O)O)cc1F`, the result_ITMP is on record as -1.22%.

Turning to `Cn1c(=O)cc(N2CCC[C@@H](N)C2)n(Cc2cc(F)ccc2C#N)c1=O`, the result_ITMP is listed as -10.5%.

Turning to `O=c1c2c(c1=O)N(CCP(=O)(O)O)CCCN2`, the result_ITMP is listed as -5.15%.

Regarding `C/N=C(/NS(=O)(=O)c1ccc(Cl)cc1)N1CC(c2ccccc2)C(c2ccc(Cl)cc2)=N1` (racemic), the result_ITMP is recorded as -1.59%.

Turning to `Cc1ccccc1NC(=O)Nc1ccc(CC(=O)N(C)[C@@H](CC(C)C)C(=O)NCC[C@H](NC(=O)[C@@H]2CCCN2S(=O)(=O)c2cc(Cl)cc(Cl)c2)C(=O)O)cc1`, the result_ITMP is listed as -1.2%.

For `CCCOc1ccc2[nH]cc(C3=CCNCC3)c2n1`, the result_ITMP is reported as 4.69%.

Take `COc1ccc(Cc2nccc3cc(OC)c(OC)cc23)cc1OC`: the result_ITMP was -4.22%.

On to `C[C@]12C=CC(=O)C=C1CCC1C2[C@@H](O)C[C@@]2(C)C1CC[C@]2(O)C(=O)COC(=O)CCC(=O)O` (stereo partly drawn), for which the result_ITMP was -5.57%.
